In all, about 280,000 compounds went through this assay and about 1,100 (0.39%) were called active. Inconclusive means that the source gave no clear call. Such entries were picked first, then a sample of the others. The call rests on the fitted dose curve; in most records, active means well fitted inhibition curve with a large enough effect; inconclusive means small, poorly fitted or top-dose-only effect, or effect the other way; inactive means flat fitted curve, though single readings scatter. No potency is given beside an inconclusive call; the fits are too rough.
What follows are compounds tested against Microtubule-associated protein tau (Homo sapiens) (UniProt P10636) (assay: qHTS for Inhibitors of Tau Fibril Formation, Fluorescence Polarization). Conditions: K18 P301L tau heparin fibrillization, Alexa594 FP, 6 h; series mostly up to 57.7 µM.
In short: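 FP of Alexa 594-tau after heparin (20 uM) induction. Substrate: human K18 P301L, 15 uM unlabeled, 0.24 uM labeled. Buffer 100 mM sodium acetate pH 7. 6 hr, 37 C.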
Further: nearly all actives have a fitted effect of over 55% in size.
Potency means the concentration at half of the fitted maximal effect; tags describe the fitted curve by direction and shape.

Sequence of UniProt P10636 (P10636 whole entry, looked up): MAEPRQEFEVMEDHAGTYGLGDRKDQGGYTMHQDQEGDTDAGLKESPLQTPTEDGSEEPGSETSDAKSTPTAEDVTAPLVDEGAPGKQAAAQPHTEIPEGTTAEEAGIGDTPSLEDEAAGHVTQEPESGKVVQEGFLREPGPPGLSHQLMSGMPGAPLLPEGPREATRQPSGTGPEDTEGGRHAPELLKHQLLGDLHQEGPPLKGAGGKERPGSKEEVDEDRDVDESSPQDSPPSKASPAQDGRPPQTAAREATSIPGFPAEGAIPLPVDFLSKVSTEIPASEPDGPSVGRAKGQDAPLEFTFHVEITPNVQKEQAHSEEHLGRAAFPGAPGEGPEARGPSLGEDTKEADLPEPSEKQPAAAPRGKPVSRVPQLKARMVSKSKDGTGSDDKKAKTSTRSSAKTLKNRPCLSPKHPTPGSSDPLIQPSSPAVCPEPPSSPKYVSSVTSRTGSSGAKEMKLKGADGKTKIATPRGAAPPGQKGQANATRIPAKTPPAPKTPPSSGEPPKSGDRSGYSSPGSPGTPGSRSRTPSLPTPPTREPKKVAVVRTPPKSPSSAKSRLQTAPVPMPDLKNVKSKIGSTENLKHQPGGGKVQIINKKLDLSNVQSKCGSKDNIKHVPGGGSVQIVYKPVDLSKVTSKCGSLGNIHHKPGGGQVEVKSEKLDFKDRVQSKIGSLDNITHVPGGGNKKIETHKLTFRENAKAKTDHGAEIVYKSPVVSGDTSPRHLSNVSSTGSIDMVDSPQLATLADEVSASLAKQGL

SMILES	Potency
CC(C)c1ccc2occ(CC(=O)Nc3cccc(C(F)(F)F)c3)c2c1	active: 17.8 µM
COc1ccc(OC)c(NC(=O)CCc2c(C)nc3c(c(C)nn3C(C)(C)C)c2C)c1	inactive
CCC(=O)Nc1ccc(Cl)c(NC(=S)NC(=O)COc2ccc(Cl)cc2)c1	inactive
COc1ccnc(Oc2cc(Cl)cc(Cl)c2)c1C#N	inconclusive [inhibitor, partial curve]
Nc1cccc2c1C(=O)N(Cc1cccc(Cl)c1)C2=O	inconclusive [inhibitor, partial curve, poor fit]
COC(=O)C1=C(NC(=O)CCCCl)CCS1	inactive
CC(C)c1ccc(-c2nnn(CCC(=O)O)n2)cc1	inactive
CCS(=O)(=O)N1CCN(c2cc3c(cc2[N+](=O)[O-])n(C)c(=O)n3C)CC1	inconclusive [inhibitor, full curve, poor fit]
C/C(Cl)=C\Cn1c(NCCc2ccccc2)nc2c1c(=O)n(C)c(=O)n2C	inconclusive [activator, full curve, poor fit]
O=C(O)C1CCCN(S(=O)(=O)c2ccc(F)cc2)C1 (stereo not given)	inconclusive [inhibitor, single point]
COc1cccc(-c2[nH]c3c(c2-c2c(-n4cccc4)n(C)c(=O)[nH]c2=O)c(=O)[nH]c(=O)n3C)c1	inactive
O=C(O)CSc1ccc2nnc(-c3cccnc3)n2n1	inactive
O=C(COc1ccc([N+](=O)[O-])cc1)NNC(=S)NC(=O)c1ccc(Br)cc1	inactive
CCc1ccc(NC(=O)c2cc(S(=O)(=O)N3CCCCC3)c[nH]2)cc1	inconclusive [inhibitor, single point]
O=C1CC(=O)N(Cc2ccco2)C(=O)N1	inconclusive [inhibitor, partial curve, poor fit]
Cc1nnc(Sc2cc(NCCO)c([N+](=O)[O-])c3nonc23)s1	inconclusive [inhibitor, single point]
Cn1c2ccccc2c2cc([N+](=O)[O-])ccc21	inconclusive [inhibitor, partial curve]
CCOc1ccc(C(=O)NC(=S)Nc2ccccn2)cc1[N+](=O)[O-]	inactive
N#C/C(=C\c1cccc(Oc2ccccc2)c1)C(=O)N1CCOCC1	inactive
Cc1ccc(C(C2C(=O)CC(C)(C)CC2=O)C2C(=O)CC(C)(C)CC2=O)s1	inactive
CC(=O)c1cccc(NC(=O)Cn2c(=O)oc3cc(S(=O)(=O)NCc4ccccc4)ccc32)c1	inconclusive [inhibitor, partial curve]
O=C(N/N=C/c1ccccn1)c1cc(-c2ccccc2Cl)n[nH]1	inconclusive [inhibitor, single point]
CC(C)(C)c1ccc(NC(=O)COC(=O)c2ccc(NS(=O)(=O)c3ccc(F)c(F)c3)cc2)cc1	active: 28.2 µM
O=C1CC(c2cccs2)CC2=C1C(c1ccccc1)n1ncnc1N2 (stereo not given)	inactive

SMILES	Potency
CCOc1ccc(/C=C/C(=O)c2cc(Br)ccc(=O)c2O)cc1	inconclusive [inhibitor, partial curve]
Nc1nc(Cl)cc(Sc2ccc(F)cc2)n1	inconclusive [inhibitor, single point]
COc1ccc(/C=C/c2nc(C#N)c(N3CCCCCC3)o2)cc1OC	inconclusive [activator, partial curve]
COC(=O)c1ccccc1NC(=O)Cn1nc2n(C)c3ccccc3n2c(=O)c1=O	inconclusive [inhibitor, single point]
Cc1ccc(/C=N/NC(=O)CSc2nnc(-c3ccccc3)n2-c2ccc(Cl)cc2)o1	inactive
c1ccc(N/N=C2\CCCc3ccccc32)nc1	inactive
O=C(NC1CCCCC1)C(c1ccc(F)cc1)N(Cc1ccco1)C(=O)CN1C(=O)c2ccccc2S1(=O)=O (stereo not given)	inconclusive [inhibitor, single point]
COC(=O)c1ccc(NC(=O)CSc2nnc(CNc3ccc(F)cc3)n2C)cc1	inconclusive [inhibitor, single point]
COc1ccc(CNc2n[nH]c(-c3ccco3)n2)cc1OC	inactive
COc1cc(NC(=O)Cn2c(=O)n(Cc3ccccc3Cl)c(=O)c3cc(OC)c(OC)cc32)cc(OC)c1	inconclusive [inhibitor, partial curve]
O=C(N/N=C/c1ccc(OCc2ccccc2)cc1)c1cccs1	inconclusive [inhibitor, partial curve]
COc1ccc(-c2c/c(=N\c3nc(-c4ccccc4)c(C)s3)c3ccccc3o2)cc1O	inconclusive [activator, full curve]
CCOC(=O)c1c(NC(=O)CC2Nc3cc(C)c(C)cc3NC2=O)sc(C)c1C (stereo not given)	inconclusive [inhibitor, single point]
Cc1onc(-c2ccccc2)c1C(=O)NC(=S)NNC(=O)c1cc(-c2ccc(F)cc2)n[nH]1	inactive
C=CCn1c(SCC(=O)NC2CCCC2)nc2scc(-c3ccco3)c2c1=O	inconclusive [inhibitor, partial curve, poor fit]
COc1ccc(CNC(=S)Nc2ccc(-c3ccccc3)cc2)cc1	inconclusive [inhibitor, full curve]
O=C(CSCc1ccc(Cl)cc1)N1CCN(Cc2ccc3c(c2)OCO3)CC1	inconclusive [inhibitor, single point]
CN(C)S(=O)(=O)c1cc(NC(=O)CN2CCc3ccccc32)ccc1Cl	inconclusive [inhibitor, single point]
COc1ccc(-c2cc(C(F)(F)F)nc(SCCC(=O)Nc3ccc(O)cc3)n2)cc1	inconclusive [inhibitor, single point]
COc1ccccc1Nc1c2c(nc3ccc(NC(=O)/C=C/c4cc(OC)c(OC)c(OC)c4)cc13)CCCC2	inconclusive [activator, single point]
CC(C)(C)C1CCc2c(sc(NC(=O)CSc3ncn[nH]3)c2C#N)C1 (stereo not given)	inconclusive [inhibitor, partial curve]
Cc1ccc(-c2[nH]nc(N)c2N=Nc2cccc(Cl)c2C)cc1	inconclusive [inhibitor, single point]
N#Cc1nc(-c2ccc(OCc3ccccc3)cc2)oc1NCCN1CCOCC1	inconclusive [activator, partial curve, poor fit]
Cc1nc2sccn2c1-c1csc(NCc2ccccc2)n1	inactive

SMILES	Potency
O=C(CSc1nnnn1-c1ccccc1)CSc1nnnn1-c1ccccc1	inactive
CCOC(=O)c1ccc(NC(=S)N2CCSC2c2ccc(OC)cc2)cc1 (stereo not given)	active: 25.1 µM
Cc1cc(C(=O)Nc2cccc3cccnc23)ccc1[N+](=O)[O-]	inconclusive [inhibitor, single point]
COc1ccc(CNc2nc(-c3ccc(Cl)cc3)nn2C(=O)c2ccccc2)cc1	inconclusive [inhibitor, partial curve]
Cc1ccc(CN2C(=O)C(=O)c3cc(Br)cc(C)c32)cc1	inconclusive [inhibitor, single point]
CCCc1cc(=O)[nH]c(Nc2ccc(OC)c(Cl)c2)n1	inconclusive [activator, partial curve]
COc1ccc(/C=C/C(=O)NCCc2ccc(S(N)(=O)=O)cc2)cc1	inconclusive [inhibitor, single point]
CC(C)=CCc1c(O)c(CC=C(C)C)c2occ(-c3ccc(O)cc3)c(=O)c2c1O	inconclusive [inhibitor, partial curve]
CSc1ncccc1C(=O)Nc1ccc(S(=O)(=O)NC2=NCCCCC2)cc1	inactive
Cc1cccc(-c2cc3nc(C)cc(NCCCn4ccnc4)n3n2)c1	inactive
Cn1nc(-c2ccc(OCC(=O)Nc3ccc(Cl)cc3)cc2)c2ccccc2c1=O	inconclusive [inhibitor, partial curve]
COc1ccc(-c2c(C)oc3ccc(C)cc23)cc1	inconclusive [inhibitor, single point]
COc1cccc(NC(=O)Cn2c(=O)ccc3cc(S(=O)(=O)N4CCC(C)CC4)ccc32)c1	inconclusive [inhibitor, partial curve]
CCn1c(C)c(CS(=O)(=O)c2ccccc2)[nH]c1=O	inconclusive [inhibitor, single point]
CCOc1ccc(-n2nc3ccc(NC(=O)c4cccc(F)c4)cc3n2)cc1	inconclusive [inhibitor, partial curve]
COc1ccc(-c2nc(CCNC(=O)c3c(F)cccc3Cl)cs2)cc1	inactive
CCOc1ccc(NC(=O)C(c2ccccn2)N(C(=O)CCl)c2ccc(OC)cc2)cc1 (stereo not given)	inactive
Cc1nnc(NC(=O)C2CCN(c3cnccn3)CC2)s1	inactive
COc1ccc(Cn2cc(C(=O)c3ccc(F)cc3)c(=O)c3cc4c(cc32)OCCO4)cc1	inactive
COc1cc(C(=O)Nc2cccc(OCc3cc(=O)n4cc(C)sc4n3)c2)cc(OC)c1OC	inconclusive [inhibitor, full curve, poor fit]
COc1ccc(/C=C2/NC(=O)N(CC(=O)Nc3cccc(C)c3)C2=O)cc1O	inactive
C=CCOc1c(Br)cc(CNc2ccc3[nH]c(=O)[nH]c3c2)cc1OCC	inconclusive [activator, partial curve, poor fit]
